From PMC4242493
Some of the results follow. The list includes weakly bound sequences.

Target: MaxL homodimer (UniProt P61244)
Test: universal protein-binding microarray (PBM)
Conditions: PBS-based mixture, 10 nM His-tagged protein dimer, 2% milk, 200 ng/uL BSA, 50 ng/uL salmon testes DNA, 0.02% TX-100; detection with Alexa 488 anti-His …; high values mean tight binding; most listed sequences are background and not binding sites; double strand, one strand shown

Sequence of UniProt P61244 (P61244 whole entry): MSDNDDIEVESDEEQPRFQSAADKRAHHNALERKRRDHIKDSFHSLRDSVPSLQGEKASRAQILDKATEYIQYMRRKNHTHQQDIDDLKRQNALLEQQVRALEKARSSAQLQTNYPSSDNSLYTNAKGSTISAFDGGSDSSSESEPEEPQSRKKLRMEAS

| Sequence | binding signal (normalized occupancy) |
| --- | --- |
| ATGGTGGG | 0.0857 |
| GCAAGCGC | 0.0702 |
| CCAGCGGC | 0.068 |
| CAGCGACC | 0.0689 |
| CTACCTTA | 0.0706 |
| ACGGGGCA | 0.0797 |
| AGCTAACC | 0.0735 |
| GAGATCCA | 0.0758 |
| AATGTCCC | 0.0778 |
| GAGTGCGC | 0.0765 |
| CGGCTATC | 0.0691 |
| ATCTCTCA | 0.0769 |
| GACATACA | 0.082 |
| AGCAAAAC | 0.0703 |
| CTATCAAA | 0.0785 |
| ATAATATG | 0.089 |
| GGCGTCGA | 0.0725 |
| ATTATTGA | 0.0802 |
| CTGGCTCA | 0.074 |
| GCTCTCTA | 0.0715 |
| AAATCTCT | 0.0749 |
| CTGTAGAA | 0.0797 |
| ATACGGCC | 0.0692 |
| ACGCAACA | 0.08 |

| Sequence | binding signal (normalized occupancy) |
| --- | --- |
| GTGACGAA | 0.0743 |
| ACCTAAAT | 0.073 |
| AAAACCAG | 0.0703 |
| AGCCTCTC | 0.0729 |
| AAATGGAA | 0.0718 |
| GAAAAGTA | 0.076 |
| CCCCGGAC | 0.0737 |
| AGTTGACG | 0.078 |
| GCCGAAGC | 0.069 |
| AAGATATG | 0.0777 |
| ATCACGGG | 0.0845 |
| AAGGACCT | 0.0648 |
| CCAGCGAC | 0.0726 |
| GCGCGGCA | 0.0732 |
| ACTCTGCT | 0.0695 |
| CTCCATAA | 0.0817 |
| ATCGCTGG | 0.0739 |
| TGTTTGAA | 0.0748 |
| CATACCCG | 0.0786 |
| TAGATCTA | 0.0802 |
| CAAGCCAG | 0.0729 |
| AGGGCAGA | 0.0748 |
| CCTTGCAG | 0.0639 |
| GTATTGAC | 0.0759 |

| Sequence | binding signal (normalized occupancy) |
| --- | --- |
| CAAGTGAC | 0.0756 |
| CCGTACAC | 0.0886 |
| GGCACGCA | 0.0741 |
| ACGTCAAA | 0.0795 |
| AGCGGTAA | 0.0718 |
| ATGTTAGG | 0.0824 |
| AGCACCTC | 0.0722 |
| ACATAAGA | 0.0789 |
| GAGGGAGA | 0.0736 |
| AATCTCCT | 0.0712 |
| AACACAAG | 0.082 |
| GACCAAAA | 0.0669 |
| CATCTCAC | 0.0826 |
| ATCGTGTA | 0.0829 |
| AGTCATAG | 0.0807 |
| GGGACTAC | 0.0801 |
| AGTTTCTA | 0.0752 |
| CTTAGTAC | 0.0739 |
| AATAACTA | 0.0804 |
| GAGCTTGC | 0.0649 |
| ATCCGTGC | 0.078 |
| GAGTACAA | 0.0725 |
| CACTAAAG | 0.0674 |
| TATGAAGA | 0.0736 |

| Sequence | binding signal (normalized occupancy) |
| --- | --- |
| TACCAGCA | 0.0786 |
| CCTTCCAC | 0.0773 |
| CAACGGGG | 0.0726 |
| AGGAGTAC | 0.0739 |
| CGTAATAG | 0.0793 |
| AAGGGGGT | 0.0806 |
| AGCAGTCC | 0.0748 |
| ATGCTCCG | 0.074 |
| TATACAGA | 0.076 |
| TCCACTCA | 0.0775 |
| CCGGTAAC | 0.0722 |
| GCATGGTA | 0.106 |
| ACGAGCTG | 0.0751 |
| AGTGTGAG | 0.0829 |
| ATGCACAG | 0.0865 |
| AAATAGCG | 0.0807 |
| ATCGCGTA | 0.0764 |
| AACCTTGT | 0.0729 |
| CTATTCCC | 0.0759 |
| GTTCCTGA | 0.071 |
| CCGGATCA | 0.0742 |
| GTGGATTA | 0.0835 |
